Screen size: about 52,000 compounds; about 1,700 (3.3%) were called active. Cut-off read from the data, not from the text of the source: active = survival mostly below about 52% (no sharp cut-off); inactive = mostly above about 56%. This is one part of the list.

The test system of this test is Wild type. Description: growth inhibition of S. aureus wild type versus tarO mutant, primary screen, teichoic acid synthesis inhibitors, RN4220, OD600 (AID 463173). Particulars: S. aureus RN4220 wild type/DeltatarO growth, OD600, 18 h, active compounds read low, screened at 18.75 µg/mL (by protocol).
Take `CCOC(=O)c1c(C)[nH]c(C)c1S(=O)(=O)N1CCCC(C(=O)N2CCN(c3ccc(Cl)cc3)CC2)C1` (stereo not drawn): the survival is inactive: 72%. For `O=C1Nc2c(c(=O)[nH]c(=O)n2-c2ccc(Cl)cc2)C1(NS(=O)(=O)c1ccccc1)C(F)(F)F` (stereo not drawn) the value was inactive: 60%; for `CCOC(=O)c1ccc(N2CCN(c3cccc(Cl)c3)CC2)c(NC(=O)Nc2ccc(Cl)cc2)c1`, inactive: 76%. On to `Cc1ccc(C)c(NC(=O)CCn2cnnn2)c1`, for which the survival is inactive: 157%. For the compound `Cc1nnc(N2CCN(c3ccccc3)CC2)c2c1nnn2Cc1ccc(F)cc1`, the survival was inactive: 89%.

With `O=C(Nc1ccccc1C(=O)OCc1cc(=O)n2c3c(sc2n1)CCCC3)c1ccc(Cl)cc1`, the survival was active: -3%. Regarding `CCOC(=O)c1[nH]c(C)c(CCC(=O)N2CCN(c3cc(Cl)ccc3C)CC2)c1C`, the survival was inactive: 72%.

On to `COc1ccc(Cl)cc1NC(=O)C1CCCN(c2cc(C)nc3ncnn23)C1` (stereo not drawn), for which the survival was inactive: 113%.

With `S=c1[nH]c2ccc(Cl)cc2[nH]1`, the survival is inactive: 107%. In the case of `CCCCOC(=O)c1ccc(NC(=O)c2ccc3c(c2)CCN3S(=O)(=O)c2ccccc2)cc1`, the survival is inactive: 83%.

In the case of `O=C(Nc1ccc(F)cc1F)c1ccc(-c2ccccc2)s1`, the survival is inactive: 91%.

For the compound `COc1ccc(C)cc1N(CC(=O)N1CCC(C)CC1)S(=O)(=O)c1ccc(C)cc1`, the survival is inactive: 69%. For the compound `Nc1c(C(=O)c2ccc3c(c2)OCO3)sc(Nc2ccccc2F)c1S(=O)(=O)c1ccccc1`, the survival was inactive: 70%. Turning to `Cc1ccc2nc(CSc3nnc(NC(=O)COc4ccccc4F)s3)cc(=O)n2c1`, the survival is inactive: 81%. On to `O=C(CCCn1c(=O)c2sccc2n(Cc2c(F)cccc2Cl)c1=O)NCc1ccccc1`, for which the survival is inactive: 149%. Turning to `Cc1cnc2c(c1SCC(=O)N(C)c1ccccc1)c(=O)n(C)c(=O)n2C`, the survival was inactive: 100%. Regarding `CCCC(=O)Nc1ccc2nn(-c3ccc(CC)cc3)nc2c1`, the survival is inactive: 74%. `Cn1c(=O)c2c(-c3ccccc3Br)n(C(C)(C)C)cc2n(C)c1=O`: the survival is inactive: 112%.

For `COc1ccc(C2CC(=O)c3cc(-c4nc(-c5cccc([N+](=O)[O-])c5)cs4)c(=O)n(-c4cc(C)cc(C)c4)c3C2)cc1` (stereo not drawn), the survival is inactive: 80%.

With `CCOC(=O)CSc1nc2sc3c(c2c(=O)n1CC)CCCC3`, the survival is inactive: 88%. In the case of `Cc1cccc(NC(=O)Cn2nc(C)c3nn(-c4ccc(Cl)cc4)c(C)c3c2=O)c1C`, the survival is inactive: 87%. Take `COc1ccc(N(C(=O)Cn2nnc3ccccc32)C(C(=O)NCC2CCCO2)c2sccc2C)cc1` (stereo not drawn): the survival is inactive: 114%.

On to `COc1ccccc1N1CCN(C(=O)c2ccc3c(c2)N(Cc2ccccc2)C(=O)c2ccccc2S3(=O)=O)CC1`, for which the survival was inactive: 94%. Consider `Cc1cc(C)cc(NC(=O)CSCc2cc(=O)c3cc(Cl)ccc3[nH]2)c1`, for which the survival is inactive: 68%. For `Cc1ccc(N2CCN(Cc3nnc(-c4ccc5c(c4)OCO5)o3)CC2)c(C)c1`, the survival was inactive: 85%. In the case of `Cc1cccc(-c2noc(CN(C(C)C)S(=O)(=O)c3ccc(Br)cc3)n2)c1`, the survival was inactive: 72%. For the compound `CC1(C)CC(=O)c2cc(-c3nc(-c4ccc(Br)cc4)cs3)c(=O)n(-c3ccccc3)c2C1`, the survival was inactive: 137%. Consider `O=C(c1cnc(N2CCOCC2)c2ccccc12)N1CCN(c2ccc(F)cc2)CC1`, for which the survival was inactive: 80%. For the compound `Cc1c(-c2nc(-c3ccc4c(c3)[nH]c(=O)n4C)no2)cccc1[N+](=O)[O-]`, the survival was inactive: 73%.

On to `O=C(NCc1ccccc1)/C(=C/c1ccco1)NC(=O)c1ccco1`, for which the survival was inactive: 103%. For the compound `O=C(CSc1nnc(-c2cccs2)o1)Nc1cccc(C(F)(F)F)c1`, the survival is inactive: 71%. With `Cc1cccc(N2C(=O)CSC23C(=O)N(CC(=O)NCCc2ccccc2)c2ccccc23)c1` (stereo not drawn), the survival was inactive: 119%. Regarding `O=C1c2ccccc2-c2onc3c(Br)cc(NC4CCCCC4)c1c23`, the survival was inactive: 86%. `COc1ccc(-c2cc(C(F)(F)F)n3nc(-c4ccc(Cl)cc4)cc3n2)cc1OC`: the survival is inactive: 58%. On to `COCCNC(=O)CSc1nc2cc3c(cc2c(=O)n1CCCCCC(=O)NCCc1ccc(OC)c(OC)c1)OCO3`, for which the survival was inactive: 59%. Turning to `Cc1cc2c(cc1S(=O)(=O)CCC(=O)NCc1ccccc1)OCC(=O)N2`, the survival is inactive: 86%.

`Cc1c(CC(=O)N2CCCCC2)c(=O)oc2c(C)c(O)ccc12`: the survival was inactive: 85%. As for `O=C(Cc1ccccc1)NC1CC(=O)N(c2ccc3c(c2)OCCO3)C1` (stereo not drawn), the figure is inactive: 97%; as for `CCN(CC)c1ccc(NC(=O)C(NS(=O)(=O)c2cccs2)C(C)C)c(C)c1` (stereo not drawn), inactive: 111%. As for `O=C(O)CCS(=O)(=O)c1ccc(-c2ccccc2)cc1`, the survival was inactive: 110%. As to `O=C(OCc1ccccc1F)c1ccc(-c2nnn(Cc3ccccc3)n2)cc1`, the survival is inactive: 121%. Turning to `CCn1nc(-c2ccccc2)c(-c2ccccc2)c(C(=O)Nc2ccccc2C(N)=O)c1=O`, the survival was inactive: 85%. For `CN(C(=O)c1cnc(N2CCOCC2)c2ccccc12)c1ccccc1F` the value was inactive: 67%; for `Cn1ncc(I)c1C(=O)N1CCc2ccccc2C1`, inactive: 108%. On to `C=CCNc1sc(C(=O)c2cccs2)c(N)c1C#N`, for which the survival was inactive: 105%.

For the compound `COc1ccc(-n2nnnc2C2CCN(S(=O)(=O)c3cccc(Cl)c3C)CC2)cc1`, the survival was inactive: 85%.

Turning to `Cc1ccc(C)c(N2CCN(C(=O)NCc3noc4ccccc34)CC2)c1`, the survival was inactive: 85%. On to `COC(=O)c1ccc2c(c1)N(CC(=O)Nc1ccc(C)c(C)c1)C(=O)c1ccccc1S2`, for which the survival is inactive: 78%. As to `CCS(=O)(=O)N1CCc2cc(C(=O)Nc3cc(C)cc(C)c3)ccc21`, the survival is inactive: 82%. For `Cc1ccc2nc(Nc3cccc(C(F)(F)F)c3)c3nnnn3c2c1` the value was inactive: 69%.

`COc1ccc2oc(=O)c(C(=O)NCc3ccco3)cc2c1`: the survival is inactive: 106%. For `Cc1cc2oc(C(=O)Nc3sc4c(c3C(=O)NCC3CCCO3)CCCC4)cc(=O)c2cc1C` (stereo not drawn) the value was inactive: 87%; for `Cn1c(=O)c2c(-c3ccc(Cl)cc3)ccnc2n(C)c1=O`, inactive: 68%.

For `COc1ccc(OC)c(CCNc2nc3cc(OC)c(OC)cc3c3nc(-c4cccnc4)nn23)c1`, the survival is inactive: 123%.

For the compound `CCCCN(CC)CCNC(=O)CN1C(=O)COc2ccc(S(=O)(=O)N3CCOCC3)cc21`, the survival was inactive: 79%. For `O=S(=O)(NCC(c1ccco1)N1CCN(c2ccc(F)cc2)CC1)c1cc(F)ccc1F` (stereo not drawn) the value was inactive: 117%. Turning to `CCc1c(C)sc(NC(=O)c2cc(-c3ccc(OC)c(OC)c3)on2)c1C#N`, the survival is inactive: 152%. For `CC(C)(C)n1cnc2cc(N=Cc3ccccc3O)ccc21` the value was inactive: 112%; for `COc1ccc(S(=O)(=O)N2CCCCC2)cc1C(=O)NC1CCS(=O)(=O)C1` (stereo not drawn), inactive: 78%; for `CCOc1ccccc1CNC(=O)CN1C(=O)c2cccnc2Oc2ccc(Cl)cc21`, inactive: 72%. For `Cn1cccc1C(=O)c1cccc(Br)c1`, the survival was inactive: 109%. With `CCS(=O)(=O)N1CCC2(CC1)OC(=O)C(C)=C2C(=O)NCc1ccc(OC)c(OC)c1`, the survival was inactive: 70%.

As for `O=C(Nc1ccccc1)c1ccc(Cl)c(S(=O)(=O)Nc2ccccc2)c1`, the survival was inactive: 68%.

For `Cc1ccc(C(=O)c2cn(Cc3ccccc3)c3c(F)cc(F)cc3c2=O)cc1`, the survival is inactive: 89%.

As to `Cc1cc(Nc2cccc(Cl)c2)nc2ccc(NC(=O)Cc3c(F)cccc3Cl)cc12`, the survival was inactive: 79%. As for `CCC1Oc2ccccc2N(CC(=O)NCc2ccccc2)C1=O` (stereo not drawn), the figure is active: -3%; as for `COc1ccc(N2CCN(C(=O)c3cn(C)c4ccc(S(=O)(=O)N5CCOCC5)cc4c3=O)CC2)cc1`, inactive: 79%. Consider `COc1ccc2nc(N(Cc3cccnc3)C(=O)c3ccc(Cl)cc3)sc2c1`, for which the survival was inactive: 72%.

For `Cn1c(=O)c(=O)n(C)c2cc(N3CCCC3)c(NC(=O)c3ccccc3Cl)cc21`, the survival was inactive: 86%. In the case of `CC(NC(=O)/C=C/c1ccccc1)C1COc2ccccc2O1` (stereo not drawn), the survival is inactive: 109%.

Regarding `C/C(=N/NC(=O)c1c(N)no[n+]1[O-])c1cccs1`, the survival is inactive: 98%.

For `CCn1c(=O)c2sccc2n2c(CCCC(=O)Nc3ccc(Oc4ccccc4)cc3)nnc12`, the survival is inactive: 94%. Take `CCOc1ccccc1CNC(=O)CN1C(=O)c2cccnc2Oc2ccc(C)cc21`: the survival is inactive: 136%. Consider `O=C(Nc1ccc(Br)cc1)c1cc(S(=O)(=O)N2CCc3ccccc32)ccc1F`, for which the survival was inactive: 131%. For `CCn1c(N2CCN(S(C)(=O)=O)CC2)nc2ccccc21`, the survival is inactive: 95%. Take `CCN1C(=O)C2(c3ccccc31)c1c(oc3ccccc3c1=O)C(=O)N2CCOC` (stereo not drawn): the survival was inactive: 85%. For the compound `COc1ccc(OC)c(NC(=O)N2CCC3(CC2)Oc2ccccc2C(=O)N3Cc2ccccc2F)c1`, the survival is inactive: 79%. For `Cc1ccc(N(O)C(=O)Nc2ccccc2)cc1`, the survival was inactive: 119%.

With `COc1ccc(-c2noc(CC(=O)N(C)c3cc(Cl)c(OC)cc3OC)n2)cc1`, the survival is inactive: 80%.

Regarding `CCCCN(C)C(=O)c1ccc2c(c1)NC(=O)C(CC(C)C)N2` (stereo not drawn), the survival was inactive: 77%.

Regarding `Cc1ccc(NC(=O)c2nc(S(C)(=O)=O)ncc2N(Cc2ccco2)Cc2ccco2)cc1`, the survival was inactive: 91%. As to `Cc1c(C(=O)Nc2ccccc2F)sc2nc3n(c(=O)c12)CCC3`, the survival was inactive: 83%.

On to `Cc1cc(C)cc(OCC(=O)N(Cc2ccco2)Cc2ccccc2Cl)c1`, for which the survival was inactive: 82%.

`COc1ccc(NC(=O)CN2C(=O)C(=O)c3ccccc32)c(OC)c1`: the survival is inactive: 70%. Consider `Cc1ccc(-c2nc(-c3cccs3)c(-c3cccs3)[nH]2)cc1`, for which the survival was inactive: 76%. As to `CN(Cc1ccccc1)c1nc2c(S(=O)(=O)c3ccccc3)nnn2c2ccsc12`, the survival is inactive: 87%. For `Cc1ccc(S(=O)(=O)c2nnn3c2nc(NC2CCCCC2)c2sccc23)cc1C` the value was inactive: 80%. For `COc1ccc(CNC(=O)CCc2c(C)nc3c4cccnc4nn3c2C)cc1` the value was inactive: 89%.

For the origin of these results see PubChem BioAssay AID463173 (ICCB-Longwood Screening Facility, Harvard Medical School, 2010).
